Measured values from the supplement of paper PMC11383711.
This is one part of the list. Binding of human antibodies (heavy:light variable regions, tested as scFv in one mRNA-display pool) to influenza hemagglutinin, with or without the stem antibody CR9114 bound first. Score = (mean enrichment − median) / interquartile range of that screen; higher = more enriched, 0 = typical non-binder. Active = above the paper's cut-off per screen: stems 28; unblocked H1 Solomon Islands 5, H1 Michigan 3, H3 5, H5 19, H7 2.85, both B 5; blocked 9, 7, H5 10, H7 10, B Phuket 10, B Lee 11.5. Scores are scaled within each screen and are no affinities; replicates correlate at about 0.6 to 0.9, and antibodies rare in the pool are noisier.

How the values were obtained:
Test in all cases: mRNA display binding score; higher = more enriched on the antigen
[1] = target: Influenza A H1N1 A/Michigan/45/2015 hemagglutinin ectodomain
Procedure: (§1)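 A pool of natively paired antibodies, displayed as scFv on mRNA, was selected once on antigen-coated beads and sequenced before and after; two replicates.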

[2] = target: Influenza A H1N1 A/Solomon Islands/3/2006 hemagglutinin ectodomain
Procedure: as §1

[3] = target: Influenza A H3N2 A/Singapore/INFIMH-16-0019/2016 hemagglutinin ectodomain; settings: antigen blocked with: nothing
Procedure: as §1

[4] = target: Influenza A H5N1 A/Qinghai/1A/2005 hemagglutinin ectodomain
Procedure: as §1

[5] = target: Influenza A H7N9 A/Shanghai/2/2013 hemagglutinin ectodomain
Procedure: as §1

[6] = target: Influenza B/Lee/1940 hemagglutinin ectodomain
Procedure: as §1

[7] = target: Influenza B/Phuket/3073/2013 hemagglutinin ectodomain
Procedure: as §1

[8] = antigen blocked with: 2 µM CR9114 IgG

B1: 100F4 (protein)
chain 1: QLQLQESGLGLVKPSETLSLTCTVSGDSVSSGSYYWSWLRQPPGKGLEWIGNMHGSGHTNYNPSLKSRVTITPDTSKNHFSLRLSSVTAADTAVYYCARALLTTVTTFEYWGQGTLVTVSS
chain 2: QSVLTQPPSVSGAPGQRVTISCTGGSSNIGAGYSVHWYQQLPGTAPKLLIYGSNSRPSGVPDRFSGSKSGTSASLAITGLRPEDEADYYCQSYDSSLSGSQVFGAGTRVTVL
mRNA display binding score [1, 8]: inactive: 0.385
mRNA display binding score ([1]; antigen blocked with: nothing): inactive: -0.331
mRNA display binding score [2, 8]: inactive: -0.283
mRNA display binding score ([2]; antigen blocked with: nothing): inactive: -0.554
mRNA display binding score [3]: inactive: -0.301
mRNA display binding score [4, 8]: active: 16.9
mRNA display binding score ([4]; antigen blocked with: nothing): active: 48
mRNA display binding score [5, 8]: inactive: 0.197
mRNA display binding score ([5]; antigen blocked with: nothing): inactive: 0.18
mRNA display binding score [6, 8]: inactive: -0.29
mRNA display binding score ([6]; antigen blocked with: nothing): inactive: -0.147
mRNA display binding score [7, 8]: inactive: -0.494
mRNA display binding score ([7]; antigen blocked with: nothing): inactive: 0.0364

B2: S5V2-52-Ig (protein)
chain 1: SGPGLVKPSETLSLTCTVSGDSVNNKIYYWSWIRQTAGRGLEWIGSLSASGSSNYNPSLKSRVTILLHTSENQFSLKLTSVTAADTAVFYCARGGIEDLFLGTSNQRIWYFDVWGRGTQVTVSS
chain 2: SASVGDRVTITCRASQSIGDSLNWYQQKSGRAPNLLMYAASNLQSGVPSRFSGSGSGTDFTLTISSLQPEDFAIYYCQHQVSFGRGTKLEI
mRNA display binding score [1, 8]: inactive: -0.409
mRNA display binding score ([1]; antigen blocked with: nothing): inactive: -0.369
mRNA display binding score [2, 8]: inactive: 0.332
mRNA display binding score ([2]; antigen blocked with: nothing): inactive: 0.133
mRNA display binding score [3]: inactive: -0.218
mRNA display binding score [4, 8]: inactive: -0.0964
mRNA display binding score ([4]; antigen blocked with: nothing): inactive: -0.153
mRNA display binding score [5, 8]: inactive: 2.31
mRNA display binding score ([5]; antigen blocked with: nothing): inactive: -0.344
mRNA display binding score [6, 8]: inactive: 1.05
mRNA display binding score ([6]; antigen blocked with: nothing): inactive: 0.171
mRNA display binding score [7, 8]: inactive: 0.374
mRNA display binding score ([7]; antigen blocked with: nothing): inactive: -0.335

B3: 019-10-4A03 (protein)
chain 1: EVQLVESGGGVVKPGGSLRLSCAASGIDFFNAWMSWVRQAPGKGLQWVGHIRSLTDGGTTDYAAPGKGRFTISRDDSQNTLYLQMESLRTDDTAVYYCTTDYGDYLNGGRWGQGTLVTVSS
chain 2: DIVMTQSPLSLSVTPGEPASISCRSSQSLLRNNEFNYLDWYLQKPGQSPQVLIYFGSHRASGVPDRFSGSGSGTSFTLRINRVEAEDVGVYYCMQALQTPYTFGQGTKVEIK
mRNA display binding score [1, 8]: inactive: 1.14
mRNA display binding score ([1]; antigen blocked with: nothing): inactive: 1
mRNA display binding score [2, 8]: inactive: 1.23
mRNA display binding score ([2]; antigen blocked with: nothing): inactive: 0.701
mRNA display binding score [3]: inactive: 1.06
mRNA display binding score [4, 8]: inactive: 0.573
mRNA display binding score ([4]; antigen blocked with: nothing): inactive: 1.62
mRNA display binding score [5, 8]: inactive: 0.382
mRNA display binding score ([5]; antigen blocked with: nothing): inactive: 0.256
mRNA display binding score [6, 8]: active: 69.4
mRNA display binding score ([6]; antigen blocked with: nothing): active: 187
mRNA display binding score [7, 8]: active: 37
mRNA display binding score ([7]; antigen blocked with: nothing): active: 20.7

B4: R95-2A05 (protein)
chain 1: QVHLEQSGAEVKKPGASVKVSCKVSGHTLTELSMHWVRQAPGKGLEWVGGFDPEVGKPVYAQNFQGRITMTEDTIWDTAYMELSSLKSEDTAVYYCATGTRAGLPTPLYYYGMDFWGQGTPVTVSS
chain 2: EIVMTQSPATLSVSPGERATLSCRASQGVSSDVVWYQQKPGQAPRPLIYGASTRATGVPGRFTASQSGTEFTLTISSLQSEDFAVYYCQQYNKWPLTFGGGTRVEL
mRNA display binding score [1, 8]: inactive: -0.31
mRNA display binding score ([1]; antigen blocked with: nothing): inactive: -0.694
mRNA display binding score [2, 8]: inactive: -0.0619
mRNA display binding score ([2]; antigen blocked with: nothing): inactive: -0.532
mRNA display binding score [3]: inactive: -0.552
mRNA display binding score [4, 8]: inactive: -0.0177
mRNA display binding score ([4]; antigen blocked with: nothing): inactive: -0.44
mRNA display binding score [5, 8]: inactive: 0.0314
mRNA display binding score ([5]; antigen blocked with: nothing): inactive: -0.688
mRNA display binding score [6, 8]: inactive: 0.177
mRNA display binding score ([6]; antigen blocked with: nothing): inactive: -0.392
mRNA display binding score [7, 8]: inactive: -0.337
mRNA display binding score ([7]; antigen blocked with: nothing): inactive: -0.422

B5: R95-1G07 (protein)
chain 1: EVQLVESGGGVVQPGRSLRLSCAASGFTFGSYAIHWVRQAPGKGLEWVAFDSNNKYYVDSVKGRFTTSRDNSKNTLYLQMDSLRAEDTAVYYCAREFQTYAFDYWGQGTLVTVST
chain 2: SYELTQPPSVSVAPGQTARITCGGNNIGSKSVNWYQQKPGQAPVLVVYDDSDRPSGIPERFSGSNSGNTATLTISRVEAGDEADYHCQVWDSRSDHPVFGGGTKVTVL
mRNA display binding score [1, 8]: inactive: 2.39
mRNA display binding score ([1]; antigen blocked with: nothing): inactive: 0.283
mRNA display binding score [2, 8]: inactive: 1.02
mRNA display binding score ([2]; antigen blocked with: nothing): inactive: 0.659
mRNA display binding score [3]: inactive: 0.575
mRNA display binding score [4, 8]: inactive: 7.88
mRNA display binding score ([4]; antigen blocked with: nothing): inactive: 12.1
mRNA display binding score [5, 8]: inactive: 0.957
mRNA display binding score ([5]; antigen blocked with: nothing): inactive: 0.0327
mRNA display binding score [6, 8]: inactive: 10.7
mRNA display binding score ([6]; antigen blocked with: nothing): active: 181
mRNA display binding score [7, 8]: active: 128
mRNA display binding score ([7]; antigen blocked with: nothing): active: 101

B6: R95-1E05 (protein)
chain 1: QVQLVQSGPEVKKPGSSVKVSCKASADTFSSYGFSWVRQAPGQGFEWMGGIIPAFGTTNYPQRFQDRVTITADESTRTVYMELSSLRSEDTAMFYCARDSPPWGDVNNNDAFDIWGQGTMVTVSS
chain 2: DVVMTQSPLSLPVTLGQPASISCRSSQSLVYTDGNTYLNWFQQRPGQSPRRLIYKVSNRDSGVPDRFSGSGSGTDFTLKISRVEAEDVGVYYCMQATDWPSITFGQGTRLEIK
mRNA display binding score [1, 8]: inactive: -0.495
mRNA display binding score ([1]; antigen blocked with: nothing): inactive: -0.743
mRNA display binding score [2, 8]: inactive: -0.198
mRNA display binding score ([2]; antigen blocked with: nothing): inactive: -0.578
mRNA display binding score [3]: inactive: -0.101
mRNA display binding score [4, 8]: inactive: 1.27
mRNA display binding score ([4]; antigen blocked with: nothing): inactive: 1.92
mRNA display binding score [5, 8]: inactive: 0.615
mRNA display binding score ([5]; antigen blocked with: nothing): inactive: -0.739
mRNA display binding score [6, 8]: inactive: 2.05
mRNA display binding score ([6]; antigen blocked with: nothing): active: 38.9
mRNA display binding score [7, 8]: inactive: 5.36
mRNA display binding score ([7]; antigen blocked with: nothing): active: 19.9
